The list shows a part of the results. Single values of this set are uncertain. Values with irradiation are relative to irradiated vehicle.
Assays:
[1] = test system: A549-Dual; assay: NF-kB reporter (SEAP) activity, viability-corrected, relative to vehicle (fold change vs vehicle); higher = more activation of STING-IRF / NF-kB immune response reporter; conditions: 10 µM
[2] = test system: A549-Dual; assay: ISRE reporter (Lucia luciferase) activity, viability-corrected, relative to vehicle (fold change vs vehicle); higher = more activation of STING-IRF / NF-kB immune response reporter; conditions: 10 µM
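Throughout, for NF-kB reporter (SEAP) activity, viability-corrected, relative to vehicle: viability correction based on the alamar blue assay, with concentrations leaving 10% survival or less dropped.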

Compound | NF-kB reporter ([1]; irradiation: 8 Gy/4 fr) | NF-kB reporter ([1]; irradiation: none) | ISRE reporter ([2]; irradiation: 8 Gy/4 fr) | ISRE reporter ([2]; irradiation: none)
COC1CC(OC2C(C)OC(OC3/C(C)=C/CC4CC(CC5(C=CC(C)C(C6CCCCC6)O5)O4)OC(=O)C4C=C(C)C(O)C5OC/C(=C\C=C\C3C)C45O)CC2OC)OC(C)C1O (stereo not given) [Doramectin] | 1.39 | 2.53 | 2.26 | 7.06
O=C(O)/C=C(/CC(=O)O)C(=O)O [cis-Aconitic acid] | 0.722 | 0.631 | 0.94 | 0.736
CS(=O)(=O)CCNCc1ccc(-c2ccc3ncnc(Nc4ccc(OCc5cccc(F)c5)c(Cl)c4)c3c2)o1.Cc1ccc(S(=O)(=O)O)cc1.Cc1ccc(S(=O)(=O)O)cc1.O [Lapatinib ditosylate monohydrate] | 1.26 | 0.81 | 1.26 | 0.975
Cn1c(=O)c2c(ncn2CCO)n(C)c1=O [Etofylline] | 0.649 | 0.773 | 0.76 | 0.664
CN1CCCN=C1/C=C/c1cccc(O)c1.O=C(O)c1cc2ccccc2c(Cc2c(O)c(C(=O)O)cc3ccccc23)c1O [Oxantel Pamoate] | 0.908 | 1.22 | 0.352 | 0.344
COc1ccccc1 [Anisole] | 0.781 | 0.879 | 0.599 | 0.573
OCC1OC(Oc2ccc(O)cc2)C(O)C(O)C1O (stereo not drawn) [alpha-Arbutin] | 0.769 | 0.769 | 0.711 | 0.523
Cl.N[C@@H](CS)C(=O)O [L-Cysteine HCl] | 1.37 | 0.791 | 1.43 | 0.795
CC12CCC3c4ccc(O)cc4CCC3C1CCC2=O (stereo not given) [Estrone] | 0.764 | 0.985 | 0.584 | 0.724
OCC(O)CN1CCN(c2ccccc2)CC1 (stereo not given) [Dropropizine] | 1.12 | 0.697 | 0.988 | 0.484
CCOC(=O)CC(=O)N1CCSC1COc1ccccc1OC (stereo not given) [Moguisteine] | 0.56 | 0.659 | 0.697 | 0.658
CCC1C(=O)OCC1Cc1cncn1C.Cl (stereo not given) [Pilocarpine HCl] | 0.969 | 0.75 | 0.901 | 0.634
COS(=O)(=O)[O-].C[N+]1(C)CCC(=C(c2ccccc2)c2ccccc2)CC1 [Diphemanil Methylsulfate] | 0.777 | 0.854 | 0.935 | 1.08
NCc1ccccc1CC(=O)NC1C(=O)N2C(C(=O)O)=C(CSc3nnnn3CC(=O)O)CSC12 (stereo not given) [Ceforanide] | 1.18 | 1.03 | 0.858 | 0.594
CCN1CC(CCN2CCOCC2)C(c2ccccc2)(c2ccccc2)C1=O (stereo not given) [Doxapram] | 0.763 | 0.711 | 0.686 | 0.496
C=C1C(CO)C(O)CC1n1cnc2c(=O)nc(N)[nH]c21.O (stereo not given) [Entecavir Hydrate] | 0.772 | 0.869 | 0.758 | 0.76
COC(=O)C1CC2=CC(=O)CCC2(C)C23OC2CC2(C)C(CCC24CCC(=O)O4)C13 (stereo not given) [Eplerenone] | 0.741 | 1.04 | 0.707 | 0.722
OCCOCCN1CCN(C2=Nc3ccccc3Sc3ccccc32)CC1 [Quetiapine] | 1.01 | 1.48 | 1.18 | 1.43
O=c1cc(-c2ccc(O)cc2)oc2cc(O)cc(O)c12 [Apigenin] | 0.653 | 0.563 | 0.66 | 0.945
CN1CCN(c2cc3c(cc2F)c(=O)c(C(=O)O)cn3-c2ccc(F)cc2)CC1.Cl [Difloxacin hydrochloride] | 0.945 | 0.926 | 0.807 | 0.933
O=C([O-])CC(O)CC(O)C=Cc1c(C2CC2)nc2ccccc2c1-c1ccc(F)cc1.O=C([O-])CC(O)CC(O)C=Cc1c(C2CC2)nc2ccccc2c1-c1ccc(F)cc1.[Ca+2] (stereo not given) [Pitavastatin Calcium] | 2.03 | 2.72 | 0.574 | 1.57
CC1(C)SC2C(NC(=O)Cc3ccccc3)C(=O)N2C1C(=O)[O-].[K+] (stereo not given) [Benzylpenicillin potassium] | 0.786 | 0.852 | 0.723 | 0.769
C=C1/C(=C\C=C2/CCC[C@]3(C)[C@@H]([C@H](C)CCCC(C)C)CC[C@@H]23)C[C@@H](O)C[C@@H]1O [Alfacalcidol] | 0.41 | 0.767 | 0.273 | 0.574
O.c1cnc2c(c1)ccc1cccnc12 [1, 10-Phenanthroline monohydrate] | 2.76 | 5.32 | 0.308 | 1.12
COc1c(-c2ccc3cc(NS(C)(=O)=O)ccc3c2)cc(-n2ccc(=O)[nH]c2=O)cc1C(C)(C)C [Dasabuvir(ABT-333)] | 1.16 | 1.49 | 0.984 | 2.46

Compound | NF-kB reporter ([1]; irradiation: 8 Gy/4 fr) | NF-kB reporter ([1]; irradiation: none) | ISRE reporter ([2]; irradiation: 8 Gy/4 fr) | ISRE reporter ([2]; irradiation: none)
CCC1OC(=O)C(C)C(OC2CC(C)(OC)C(O)C(C)O2)C(C)C(OC2OC(C)CC(N(C)C)C2O)C(C)(O)CC(C)CN(C)C(C)C(O)C1(C)O.O.O (stereo not given) [Azithromycin Dihydrate] | 0.567 | 0.932 | 0.783 | 1.2
CC12CCC3c4ccc(O)cc4CCC3C1CCC2OC(=O)CCC1CCCC1 (stereo not given) [Estradiol Cypionate] | 0.616 | 1.02 | 0.343 | 0.576
CCC1OC(=O)C(C)C(OC2CC(C)(OC)C(O)C(C)O2)C(C)C(OC2OC(C)CC(N(C)C)C2O)C(C)(O)CC(C)C(=O)C(C)C(O)C1(C)O.N#CS (stereo not given) [Erythromycin thiocyanate] | 0.698 | 0.889 | 0.717 | 0.859
COc1cc(O)cc(C2CC(=O)c3c(O)cc(OC4OC(CO)C(O)C(O)C4OC4OC(C)C(O)C(O)C4O)cc3O2)c1 (stereo not given) [Neohesperidin] | 0.552 | 0.686 | 0.225 | 0.282
Cl.c1ccc(Nc2ccccc2)cc1 [Diphenylamine Hydrochloride] | 1.16 | 0.97 | 0.963 | 0.637
CC1=C(C/C=C(\C)CCCC(C)CCCC(C)CCCC(C)C)C(=O)c2ccccc2C1=O (stereo not given) [Vitamin K1] | 0.786 | 0.72 | 0.702 | 0.482
CC1OC(OCC2OC(Oc3c(-c4ccc(OCCO)c(OCCO)c4)oc4cc(OCCO)cc(O)c4c3=O)C(O)C(O)C2O)C(O)C(O)C1O (stereo not given) [Troxerutin] | 0.752 | 1.05 | 0.833 | 1.03
Cc1nnc(SCC2=C(C(=O)[O-])N3C(=O)C(NC(=O)Cn4cnnn4)C3SC2)s1.[Na+] (stereo not given) [Cefazolin Sodium] | 0.909 | 0.963 | 0.955 | 0.768
Cc1cc([N]([Na])S(=O)(=O)c2ccc(N)cc2)no1 [Sulfamethoxazole sodium] | 0.964 | 0.893 | 0.883 | 0.727
NS(=O)(=O)c1cc(Cl)c(Cl)c(S(N)(=O)=O)c1 [Dichlorphenamide (Diclofenamide)] | 0.781 | 0.538 | 0.787 | 0.546
C#CC1(O)CCC2C3CCc4cc(OC)ccc4C3CCC21C (stereo not given) [Mestranol] | 0.629 | 1.18 | 0.478 | 0.798
COC1OC(COS(=O)(=O)[O-])C(OC2OC(C(=O)[O-])C(OC3OC(COS(=O)(=O)[O-])C(OC4OC(C(=O)[O-])C(OC5OC(COS(=O)(=O)[O-])C(O)C(O)C5NS(=O)(=O)[O-])C(O)C4O)C(OS(=O)(=O)[O-])C3NS(=O)(=O)[O-])C(O)C2OS(=O)(=O)[O-])C(O)C1NS(=O)(=O)[O-].[Na+].[Na+].[Na+].[Na+].[Na+].[Na+].[Na+].[Na+].[Na+].[Na+] (stereo not given) [Fondaparinux Sodium] | 1.03 | 0.99 | 0.832 | 0.946
OCC1OC(OCCc2ccc(O)cc2)C(O)C(O)C1O (stereo not given) [Salidroside] | 1.21 | 0.748 | 1.06 | 0.57
COc1cc(/C=C/C(=O)N2CCN(CC(=O)N3CCCC3)CC2)cc(OC)c1OC.O=C(O)/C=C\C(=O)O [Cinepazide maleate] | 0.94 | 1.2 | 0.738 | 0.736
CS(=O)(=O)n1cc2c(n1)CN(C1COC(c3cc(F)ccc3F)C(N)C1)C2 (stereo not given) [Omarigliptin (MK-3102)] | 1.04 | 0.914 | 1.03 | 1
CCCCc1nc(C)c(CC(=S)N(C)C)c(=O)n1Cc1ccc(-c2ccccc2-c2nnn[nH]2)cc1 [Fimasartan] | 0.821 | 0.922 | 0.809 | 0.819
CCN(CC)C(=O)N1CCN(C)CC1.O=C(O)CC(O)(CC(=O)O)C(=O)O [Diethylcarbamazine citrate] | 0.896 | 0.93 | 0.861 | 0.819
O=C(O)c1cc(O)c2c(c1)C(C1c3cc(C(=O)O)cc(O)c3C(=O)c3c(OC4OC(CO)C(O)C(O)C4O)cccc31)c1cccc(OC3OC(CO)C(O)C(O)C3O)c1C2=O (stereo not given) [Sennoside A] | 1.36 | 0.951 | 1.3 | 0.859
CC(C)c1c(C(=O)Nc2ccccc2)c(-c2ccccc2)c(-c2ccc(F)cc2)n1CCC(O)CC(O)CC(=O)O (stereo not given) [atorvastatin] | 0.726 | 0.999 | 0.72 | 0.948
CC1=NN(c2ccccc2)C(=O)C1 [Edaravone] | 0.706 | 1.06 | 0.458 | 0.441
CC1CC2C3CC(F)C4=CC(=O)C=CC4(C)C3(F)C(O)CC2(C)C1(O)C(=O)CO (stereo not given) [Flumethasone] | 0.284 | 0.602 | 0.0659 | 0.194
CC(C)(C)C(O)/C=C/c1ccc2c(c1)OCO2 (stereo not given) [Stiripentol] | 1.01 | 0.955 | 1.03 | 0.608
Cc1ncc(COP(=O)([O-])[O-])c(CN(CCN(CC(=O)O)Cc2c(COP(=O)([O-])O)cnc(C)c2O)CC(=O)O)c1O.[Mn].[Na+].[Na+].[Na+] [Mangafodipir Trisodium] | 0.467 | 0.484 | 0.597 | 0.663
O=C(Nc1ccccc1)c1ccccc1O [Salicylanilide] | 0.791 | 1.43 | 0.323 | 0.481
CCCCCCCCCCCCCCCCCC(=O)OC [Methyl Stearate] | 1.19 | 0.672 | 1.35 | 0.717

— the supplement of paper PMC9174493
